We go through 62 compounds from article PMC6664820, “Novel natural and synthetic inhibitors of solute carriers SGLT1 and SGLT2” (Pharmacology Research & Perspectives, 2019).

Hit rate of the full screen: of about 1,900 compounds, about 40 (2%) showed an effect of 50% or more. This is one part of the list. Residues, ends and D or L forms follow the SMILES beside them.

For this assay, the target named is human SGLT1 (hSGLT1) (human, UniProt P13866). Briefly: primary screen, percent of control activity; higher = less effect of the substance. Further details: single well. The conditions noted are these: 50 µM. In a few lines: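 Single-point screen at 50 µmol/L in CHO-hSGLT1 cells, with 160 µmol/L 1-NBD-glucose in glucose-free DMEM for 90 min at 37°C. Fluorescence from isopropanol extracts was calibrated, and CHO wild-type uptake was subtracted. Data are percent of uptake without compound.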
Chain of human SGLT1 (hSGLT1) (P13866 whole entry, looked up): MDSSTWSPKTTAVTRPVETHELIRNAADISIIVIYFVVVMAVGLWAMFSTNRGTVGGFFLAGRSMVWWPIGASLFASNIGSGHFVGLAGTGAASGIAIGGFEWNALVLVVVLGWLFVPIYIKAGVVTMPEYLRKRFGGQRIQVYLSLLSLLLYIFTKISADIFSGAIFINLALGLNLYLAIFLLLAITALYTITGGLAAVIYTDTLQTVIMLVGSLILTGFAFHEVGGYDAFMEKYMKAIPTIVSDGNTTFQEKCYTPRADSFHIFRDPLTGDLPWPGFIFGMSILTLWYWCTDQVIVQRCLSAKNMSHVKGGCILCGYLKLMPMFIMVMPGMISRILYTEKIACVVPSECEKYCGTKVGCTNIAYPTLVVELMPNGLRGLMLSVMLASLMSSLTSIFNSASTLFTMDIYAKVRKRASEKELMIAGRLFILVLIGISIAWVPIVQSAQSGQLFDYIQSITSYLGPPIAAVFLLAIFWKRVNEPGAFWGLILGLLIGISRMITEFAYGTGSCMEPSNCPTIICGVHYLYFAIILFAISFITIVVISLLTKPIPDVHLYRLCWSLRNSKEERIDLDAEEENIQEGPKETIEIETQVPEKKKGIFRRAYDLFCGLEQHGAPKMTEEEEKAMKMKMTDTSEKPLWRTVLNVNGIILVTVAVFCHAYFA
In the case of `Oc1ccnc(S)n1`, the “NORMALIZED SGLT1 ACTIVITY (%)” value stood at 116%.

With `COc1c2ccoc2c(OC)c2oc(=O)ccc12`, the “NORMALIZED SGLT1 ACTIVITY (%)” value is given as 116%.

As to `C[C@@H]1CC[C@@]2(OC1)O[C@H]1C[C@H]3[C@@H]4CC[C@H]5C[C@@H](O)CC[C@]5(C)[C@H]4CC(=O)[C@]3(C)[C@H]1[C@@H]2C`, the “NORMALIZED SGLT1 ACTIVITY (%)” value stood at 142%.

In the case of `Cn1c(=O)c2c(ncn2CC(O)CO)n(C)c1=O` (centres unmarked), the “NORMALIZED SGLT1 ACTIVITY (%)” value came out at 124%.

Consider `C[C@]12C=CC(=O)C=C1CC[C@H]1[C@@H]3C[C@@H](O)[C@](O)(C(=O)CO)[C@@]3(C)C[C@H](O)[C@@]12F`, for which the “NORMALIZED SGLT1 ACTIVITY (%)” value was found to be 115%.

Regarding `CC(C)COCC(CN(Cc1ccccc1)c1ccccc1)N1CCCC1.Cl` (centres unmarked), the “NORMALIZED SGLT1 ACTIVITY (%)” value came to 48%.

Take `CC1(C)O[C@@H]2C[C@H]3[C@@H]4CCC5=CC(=O)CC[C@]5(C)[C@@]4(F)[C@@H](O)C[C@]3(C)[C@]2(C(=O)CCl)O1`: the “NORMALIZED SGLT1 ACTIVITY (%)” value came out at 100%.

As to `C[C@@H]1O[C@@H](OC[C@H]2O[C@@H](Oc3c(-c4ccc(OCCO)c(OCCO)c4)oc4cc(OCCO)cc(O)c4c3=O)[C@H](O)[C@@H](O)[C@@H]2O)[C@H](O)[C@H](O)[C@H]1O`, the “NORMALIZED SGLT1 ACTIVITY (%)” value is listed as 99%.

`C=CC(C1=CC(=O)C(OC)=CC1=O)c1ccc(OC)cc1` (centres unmarked): the “NORMALIZED SGLT1 ACTIVITY (%)” value came to 123%.

Regarding `CC1=CCc2c(cc3oc(C)cc(=O)c3c2O)OC1`, the “NORMALIZED SGLT1 ACTIVITY (%)” value is given as 126%.

As for `COc1ccc(C(=O)O)c(O)c1OC`, the “NORMALIZED SGLT1 ACTIVITY (%)” value is recorded as 102%.

Regarding `CN1C(C(=O)Nc2ccccn2)=C(O)c2ccccc2S1(=O)=O`, the “NORMALIZED SGLT1 ACTIVITY (%)” value was determined as 100%.

Consider `Cc1cc(C)cc(OCC2CNC(=O)O2)c1` (centres unmarked), for which the “NORMALIZED SGLT1 ACTIVITY (%)” value was 229%.

On to `CCCCCC(=O)O[C@]1(C(C)=O)CC[C@H]2[C@@H]3CCC4=CC(=O)CC[C@]4(C)[C@H]3CC[C@@]21C`, for which the “NORMALIZED SGLT1 ACTIVITY (%)” value is reported as 102%.

On to `COc1cccc(OC)c1C(=O)N[C@@H]1C(=O)N2[C@@H]1SC(C)(C)[C@@H]2C(=O)[O-].[Na+]`, for which the “NORMALIZED SGLT1 ACTIVITY (%)” value is 111%.

Regarding `CC12CCC3C(=CCc4cc(O)ccc43)C1CCC2=O` (centres unmarked), the “NORMALIZED SGLT1 ACTIVITY (%)” value stood at 118%.

`COc1ccc(C(=O)CC(=O)c2ccc(C(C)(C)C)cc2)cc1`: the “NORMALIZED SGLT1 ACTIVITY (%)” value is reported as 104%.

As to `C=C[C@@](C)(O)CCC1C(=C)C[C@H](O)C2C(C)(C)CCCC12C` (some centres unmarked), the “NORMALIZED SGLT1 ACTIVITY (%)” value was found to be 115%.

As to `O=c1cc(CO)occ1O`, the “NORMALIZED SGLT1 ACTIVITY (%)” value came out at 111%.

`C[C@@H]1CC(Cl)CC[C@H]1C(=O)OC(C)(C)C` (some centres unmarked): the “NORMALIZED SGLT1 ACTIVITY (%)” value came to 81%.

`CCN(CC)CCOCCOC(=O)C1(c2ccccc2)CCCC1.O=C(O)CC(O)(CC(=O)O)C(=O)O`: the “NORMALIZED SGLT1 ACTIVITY (%)” value was determined as 80%.

Turning to `CC(=O)[O][Hg][c]1ccccc1`, the “NORMALIZED SGLT1 ACTIVITY (%)” value was 4%.

On to `CC(=O)N[C@@H](CS)C(=O)O`, for which the “NORMALIZED SGLT1 ACTIVITY (%)” value turned out to be 80%.

Consider `CC(=O)O[C@H]1C[C@@]2(C)[C@@H](C[C@@H](O)[C@H]3[C@@]4(C)CC[C@@H](O)[C@@H](C)[C@@H]4CC[C@@]32C)/C1=C(\CCC=C(C)C)C(=O)O`, for which the “NORMALIZED SGLT1 ACTIVITY (%)” value was determined as 248%.

Consider `C[N+]1(C)CCCC(OC(=O)C(O)(c2ccccc2)c2ccccc2)C1.[Br-]` (centres unmarked), for which the “NORMALIZED SGLT1 ACTIVITY (%)” value came to 90%.

For `Br.COc1c2c(cc3c1OCO3)CCN(C)C2`, the “NORMALIZED SGLT1 ACTIVITY (%)” value was 126%.

Regarding `Cl.NCC(=O)CCC(=O)O`, the “NORMALIZED SGLT1 ACTIVITY (%)” value stood at 83%.

Turning to `CCOC(=O)c1c(C)cc(O)c(C=O)c1O`, the “NORMALIZED SGLT1 ACTIVITY (%)” value turned out to be 347%.

Turning to `C[C@H](N)[C@H](O)c1ccc(O)c(O)c1`, the “NORMALIZED SGLT1 ACTIVITY (%)” value is recorded as 122%.

As to `CC[N+](CC)(CC)CCOc1cccc(OCC[N+](CC)(CC)CC)c1OCC[N+](CC)(CC)CC.[I-].[I-].[I-]`, the “NORMALIZED SGLT1 ACTIVITY (%)” value came out at 91%.

As for `COc1cc(O)c2c(=O)cc(C)oc2c1CC=C(C)C`, the “NORMALIZED SGLT1 ACTIVITY (%)” value amounted to 158%.

Consider `CC(C)C[C@H](N)C(=O)N[C@@H](C)C(=O)O` (H-Leu-Ala-OH), for which the “NORMALIZED SGLT1 ACTIVITY (%)” value was determined as 120%.

For `CC1(C)S[C@@H]2[C@H](NC(=O)C(C(=O)[O-])c3ccccc3)C(=O)N2[C@H]1C(=O)[O-].[Na+].[Na+]` (some centres unmarked), the “NORMALIZED SGLT1 ACTIVITY (%)” value is reported as 112%.

As for `NC(=O)c1ncn([C@@H]2O[C@H](CO)[C@@H](O)[C@H]2O)n1`, the “NORMALIZED SGLT1 ACTIVITY (%)” value was determined as 97%.

As for `Cl.NC12CC3CC(CC(C3)C1)C2`, the “NORMALIZED SGLT1 ACTIVITY (%)” value amounted to 65%.

For `COc1cc(O)cc(/C=C/c2ccccc2)c1`, the “NORMALIZED SGLT1 ACTIVITY (%)” value came out at 494%.

`CN1C2CC3C[C@H]1C(O3)C2O` (some centres unmarked): the “NORMALIZED SGLT1 ACTIVITY (%)” value amounted to 84%.

As for `NC[C@@H]1O[C@H](O[C@@H]2[C@@H](CO)OC(O[C@@H]3[C@@H](O)[C@H](N)C[C@H](N)[C@H]3OC3O[C@H](CN)[C@@H](O)[C@H](O)[C@H]3N)[C@@H]2O)[C@H](N)[C@@H](O)[C@@H]1O.O=S(=O)(O)O` (some centres unmarked), the “NORMALIZED SGLT1 ACTIVITY (%)” value is on record as 102%.

Turning to `CNC(C)C(O)c1ccccc1.Cl` (centres unmarked), the “NORMALIZED SGLT1 ACTIVITY (%)” value came to 124%.

As to `Cl.Fc1ccc([C@@H]2CCNC[C@H]2COc2ccc3c(c2)OCO3)cc1`, the “NORMALIZED SGLT1 ACTIVITY (%)” value came out at 132%.

In the case of `CC1CC[C@]2(NC1)O[C@H]1CC3C4CC[C@H]5C[C@@H](O)CC[C@]5(C)C4CC[C@]3(C)[C@H]1[C@@H]2C.Cl` (some centres unmarked), the “NORMALIZED SGLT1 ACTIVITY (%)” value was 96%.

As to `NC(=O)c1ccc(N)nc1`, the “NORMALIZED SGLT1 ACTIVITY (%)” value stood at 123%.

`COc1cc2ccc(=O)oc2c2ccoc12`: the “NORMALIZED SGLT1 ACTIVITY (%)” value was 161%.

Turning to `CC(C)CCCC(C)[C@H]1CCC2C3CC[C@@H]4C[C@H](O)CC[C@]4(C)C3CC[C@@]21C` (some centres unmarked), the “NORMALIZED SGLT1 ACTIVITY (%)” value is given as 108%.

As for `CC(C)=CCCC1(C)C=Cc2c(O)c3c(c(CC=C(C)C)c2O1)OC12C(=CC4CC1C(C)(C)OC2(C/C=C(/C)C(=O)O)C4=O)C3=O` (centres unmarked), the “NORMALIZED SGLT1 ACTIVITY (%)” value worked out at 163%.

Take `Cc1ccnc(NS(=O)(=O)c2ccc(N)cc2)n1`: the “NORMALIZED SGLT1 ACTIVITY (%)” value is given as 123%.

For the compound `C[C@H]1NC(=O)NC1=O`, the “NORMALIZED SGLT1 ACTIVITY (%)” value was 104%.

For `O=C1OC(=O)C2C3CCC(O3)C12` (centres unmarked), the “NORMALIZED SGLT1 ACTIVITY (%)” value is recorded as 124%.

Consider `c1ccc2c(c1)[nH]c1cnccc12`, for which the “NORMALIZED SGLT1 ACTIVITY (%)” value is listed as 352%.

For the compound `CC1=CC(=O)C(C(C)C)=CC1=O`, the “NORMALIZED SGLT1 ACTIVITY (%)” value was found to be 90%.

For `OCCN1CCN(CCCN2c3ccccc3Sc3ccc(Cl)cc32)CC1`, the “NORMALIZED SGLT1 ACTIVITY (%)” value is reported as 17%.

In the case of `Cc1ccccc1OCC(O)CO` (centres unmarked), the “NORMALIZED SGLT1 ACTIVITY (%)” value is recorded as 115%.

Turning to `Cc1nccc2c1[nH]c1ccccc12`, the “NORMALIZED SGLT1 ACTIVITY (%)” value is given as 443%.

Consider `CCCn1c(=O)c2nc(C3CCCC3)[nH]c2n(CCC)c1=O`, for which the “NORMALIZED SGLT1 ACTIVITY (%)” value amounted to 180%.

On to `O=C(O)c1cc(O)ccc1O`, for which the “NORMALIZED SGLT1 ACTIVITY (%)” value turned out to be 145%.

As for `CC(=O)OCC(=O)[C@@]1(O)CCC2C3CCC4=CC(=O)C=CC4(C)C3[C@@H](O)C[C@@]21C` (some centres unmarked), the “NORMALIZED SGLT1 ACTIVITY (%)” value turned out to be 123%.

`CC(C)Cc1ccc(C(C)C(=O)O)cc1` (centres unmarked): the “NORMALIZED SGLT1 ACTIVITY (%)” value amounted to 232%.

Regarding `COc1ccc2c(c1)[C@@]1(C)CC[C@@H](O)C[C@@H]1CC2`, the “NORMALIZED SGLT1 ACTIVITY (%)” value is recorded as 116%.

With `CC1(C)CC23C(=O)CCC(O)C2(C)CCC13` (centres unmarked), the “NORMALIZED SGLT1 ACTIVITY (%)” value came to 101%.

Consider `CCN(CC)C(=S)SSC(=S)N(CC)CC`, for which the “NORMALIZED SGLT1 ACTIVITY (%)” value is given as 98%.

With `CC(=O)OC(C)(C)[C@@H]1Cc2cc3ccc(=O)oc3cc2O1`, the “NORMALIZED SGLT1 ACTIVITY (%)” value is reported as 152%.

Take `C=C[C@@]1(C)CC(=O)[C@]2(O)[C@@]3(C)[C@@H](O)CCC(C)(C)[C@@H]3[C@H](O)[C@H](OC(C)=O)[C@@]2(C)O1`: the “NORMALIZED SGLT1 ACTIVITY (%)” value turned out to be 67%.
